From PubChem BioAssay AID1508642 (National Center for Advancing Translational Sciences (NCATS), 2021)
The whole screen tested about 43,000 compounds, of which about 200 (0.47%) were called active. Inconclusive results (about 12%) are left out. Calls come from the whole dose curve; as a rule, active = well fitted cell-killing curve with a large enough effect; inconclusive = small, poorly fitted or top-dose-only effect, or effect the other way; inactive = flat fitted curve, though single readings scatter. This is one part of the list.

Experiment: Cell viability qHTS assay in S16 Pmp22-F2sN cells; note: nearly all actives have a fitted effect of over 65% in size
Settings: S16 Pmp22-F2sN Schwann cells (luciferase reporters placed in the Pmp22 gene) viability, CellTiter-Glo, 24 h; series mostly up to 57.5 µM; activity change, negative = cytotoxicity: at the top concentration
Procedure, shortened: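 Rat S16 Schwann reporter line, 24 h treatment with library compounds delivered at 23 nL per well. Cell viability by CellTiter-Glo luminescence.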
% is set by controls: 0 for no effect and ±100 for the full control effect.

Row | SMILES | activity change, negative = cytotoxicity
1 | Cc1ccc(CCNC(=O)c2ccc3c(c2)N(Cc2ccccc2)C(=O)c2ccccc2S3=O)cc1 (stereo unspecified) | inactive: -12%
2 | Cc1cccc(NC(=O)c2ccc(F)c(S(=O)(=O)N3CCC4(CC3)OCCO4)c2)c1 | inactive: -23.8%
3 | O=C(CSc1nnc(-c2ccc(Cl)cc2)o1)Nc1ccc(F)cc1 | inactive: -0.247%
4 | CC(=O)N1CCc2c(sc3c2c(=O)n(CCc2ccccc2)c(=O)n3CC(=O)Nc2ccc(C)c(F)c2)C1 | inactive: -19.9%
5 | COc1cccc2c1Oc1ncccc1N(c1ccc(C(=O)NCc3ccccc3Cl)s1)C2 | inactive: -19.4%
6 | Cc1ccc2c(c1)Cc1c(nc(-c3ccc(Cl)cc3)nc1SCC(=O)N1CCCCC1)O2 | inactive: -6.74%
7 | Cc1ccc2onc(CNC(=O)Nc3cc(F)ccc3F)c2c1 | inactive: -3.44%
8 | Cc1ccn2c(Nc3ccc4c(c3)OCCO4)c(-c3cccs3)nc2c1 | inactive: -1.26%
9 | Cc1ccc(Cl)cc1NC(c1ccc(F)cc1)c1nnc(-c2ccccc2)o1 (stereo unspecified) | inactive: 0.152%
10 | Cc1ccc(NC(=O)C(CC(C)C)NS(=O)(=O)c2ccc3c(c2)oc(=O)n3C)c(C)c1 (stereo unspecified) | inactive: 3.29%
11 | COc1ccc(Nc2cc(C)nc3c(C)c(C)ccc23)cc1 | inactive: 19.1%
12 | CCC1CN(C(=O)Nc2ccc(Br)cc2F)c2ccccc2S1 (stereo unspecified) | inactive: -1.04%
13 | O=C(NCC(c1ccc(Cl)cc1)N1CCCCC1)c1ccccc1F (stereo unspecified) | inactive: 10.2%
14 | COc1ccccc1N1CCN(C(=O)CSc2n[nH]c(-c3ccccc3Cl)n2)CC1 | inactive: 3.87%
15 | CCOc1ccc(OCC)c(NC(=O)CCc2nc3cccnc3n2-c2ccccc2)c1 | inactive: 10.8%
16 | COC(=O)C(NC(=O)CCc1c(C)nc2c(c(C)nn2-c2ccccc2)c1C)C(C)C (stereo unspecified) | inactive: 13.8%
17 | Cc1ccccc1NC(=O)[C@H](CSCc1ccccc1)N1Cc2ccccc2C1=O | inactive: -19.7%
18 | COc1ccc(NC(=O)Cn2c(=O)n(-c3cccc(C(F)(F)F)c3)c(=O)c3sccc32)cc1 | inactive: 2.8%
19 | C#CCn1c(C2CC(=O)N(c3ccc(OCC)cc3)C2)nc2ccccc21 (stereo unspecified) | inactive: -3.71%
20 | CCN(CC)C(=O)C1CCN(c2nnc(C)c3c(C)n(-c4ccc(Cl)cc4)nc23)CC1 | inactive: 2.67%
21 | O=C(NCc1ccc(F)cc1)c1cnc(N2CCCCC2)c2ccccc12 | inactive: 5.93%
22 | CCCOc1ccc(CNC(=O)C2CCCN(c3nc4c(C)cc(C)cc4s3)C2)cc1 (stereo unspecified) | inactive: -0.648%
23 | COc1cc(OC)cc(C(=O)Nc2ccc3nc(Nc4cccc(C(F)(F)F)c4)cc(C)c3c2)c1 | inactive: -5.63%
24 | CCOc1ccc(C(=O)NCC(c2ccco2)S(=O)(=O)c2cccs2)cc1 (stereo unspecified) | inactive: -1.29%

Row | SMILES | activity change, negative = cytotoxicity
25 | Cc1ccccc1NC(=O)Cn1c(=O)n(Cc2ccccc2)c(=O)c2sc3ccccc3c21 | inactive: -0.598%
26 | COC(=O)c1ccc(C(=O)OC)c(NC(=O)c2cnn3c(C(F)F)cc(-c4ccccc4)nc23)c1 | inactive: 16.9%
27 | Cc1ccccc1-c1nn2c(=O)cc(CN3CCN(S(=O)(=O)c4ccc(Cl)cc4)CC3)nc2s1 | inactive: -6.83%
28 | COc1ccc(-c2nc(CNC(=O)Nc3ccccc3)c(C)o2)cc1 | inactive: -9.08%
29 | COc1ccccc1N1CCN(C(=O)c2cc(S(=O)(=O)N3CCC(C)CC3)cn2C)CC1 | inactive: 16.9%
30 | COc1ccc(-n2c(=O)c3ccccc3n(Cc3cccc(C)c3)c2=O)cc1 | inactive: 25%
31 | CCCN(c1ccc(C(C)C)cc1)S(=O)(=O)c1ccc2c(c1)oc(=O)n2CC(=O)OCC | inactive: -3.56%
32 | COc1cccc(Cn2c(CNS(=O)(=O)c3ccc(C(C)(C)C)cc3)nc3cccnc32)c1 | inactive: -4.05%
33 | Cc1ccccc1N(C)S(=O)(=O)c1nnc(NC(=O)C(C)C)s1 | inactive: -1%
34 | CCOC(=O)c1ccc(N2C(=O)c3n[nH]c(C)c3C2c2ccc(OCC)cc2)cc1 (stereo unspecified) | inactive: 23.5%
35 | O=C(Nc1nnc(S(=O)(=O)Nc2ccccc2)s1)C1CCCCC1 | inactive: 9.05%
36 | CCOC(=O)Cn1c(=O)n(CC2CCCO2)c2nc(-c3ccc(C(C)C)cc3)nc(C(N)=O)c21 (stereo unspecified) | inactive: 0.59%
37 | Cc1ccc(Cl)cc1N1CCN(C(=O)CCNS(=O)(=O)c2ccc3c(c2)CCN3C(=O)C2CC2)CC1 | inactive: -17.9%
38 | Cc1ccc(NC(=O)NCc2cccn2Cc2ccccc2)c(C)c1 | inactive: 3.19%
39 | CCCCCSc1ncnc2c1sc1nc(N3CCOCC3)c3c(c12)CCCC3 | inactive: 3.76%
40 | CCOC(=O)c1scc(-c2ccc(C)cc2)c1S(=O)(=O)N1CCN(c2ccccc2F)CC1 | inactive: -1.53%
41 | O=C(CCC1N=C2c3ccccc3N=C(SCc3cccc(F)c3)N2C1=O)NCc1cccs1 (stereo unspecified) | inactive: -11.3%
42 | CCOc1ccc(OCC)c(NC(=O)c2ccc(-c3ccccc3)s2)c1 | inactive: 4.94%
43 | Cc1nc2nc(SCC(=O)NC3CCC(C)CC3)nn2c(C)c1Cc1ccccc1 (stereo unspecified) | inactive: 0.189%
44 | COC(=O)c1ccc(-c2nc3cc(NC(C)=O)ccc3o2)cc1 | inactive: 5.12%
45 | CCOc1ccc(CCNC(=O)c2sc3ncccc3c2-n2cccc2)cc1OCC | inactive: -3.78%
46 | CCC(C)NC(=O)Cn1c(=O)n(-c2ccc(C)c(C)c2)c(=O)c2c3c(sc21)CCCCC3 (stereo unspecified) | inactive: 2.03%
47 | Cc1cccc(CS(=O)(=O)Cc2ccc(C(=O)NCCc3ccccc3)o2)c1 | inactive: -18.1%
48 | COc1ccc(CCNc2nc(-c3ccc(OC)c(OC)c3)cc(C(F)(F)F)n2)cc1OC | inactive: -13.6%

Row | SMILES | activity change, negative = cytotoxicity
49 | CCOC(=O)c1c(S(=O)(=O)N2CCCC(C(=O)NCc3cccc(OC)c3)C2)c(C)n(C)c1C (stereo unspecified) | inactive: -2.96%
50 | Cc1ccc(N2CC(NC(=O)c3ccc(S(=O)(=O)N4CCCC4)cc3)CC2=O)cc1C (stereo unspecified) | inactive: -0.608%
51 | Cc1cc(C)cc(-n2ccn(CC(=O)Nc3cc(C)ccc3C)c(=O)c2=O)c1 | inactive: 6.36%
52 | CCn1cc(C(=O)NCCCN2CCCC(C)C2)c(=O)c2cc(S(=O)(=O)N(C)C3CCCCC3)ccc21 (stereo unspecified) | inactive: -3.98%
53 | COc1ccc(-c2nnc(SCC(=O)NC3CCCC3)nc2-c2ccc(OC)c(OC)c2)cc1OC | inactive: -3.61%
54 | COc1cccc(OC)c1C(=O)Nc1cccc(-c2cn3ccsc3n2)c1 | inactive: 0.176%
55 | Cc1ccc(NC(=O)CCCc2nnc3n(C)c(=O)c4sccc4n23)cc1F | inactive: 3.52%
56 | COc1ccc(-c2nc3c(c(SCC(=O)Nc4ccccc4F)n2)Cc2cc(C)ccc2O3)cc1 | inactive: -0.0014%
57 | CC(=O)c1ccc(NC(=O)c2cc(S(=O)(=O)N3CCCCCC3)cn2C)cc1 | inactive: 0.636%
58 | O=C(CNC(=O)c1ccccc1)OCc1cc(=O)n2ccsc2n1 | inactive: -21%
59 | CC1CCn2c(nc3cc(C(=O)NCc4ccccc4)ccc32)C1 (stereo unspecified) | inactive: 7.66%
60 | Cc1ccc(C)c(N2CCN(C(=O)C3CCCN(Cc4nc(-c5cccc(Cl)c5)oc4C)C3)CC2)c1 (stereo unspecified) | inactive: 16.4%
61 | NC(=O)C1(N2CCCCC2)CCN(C(=O)Nc2ccc(F)cc2)CC1 | inactive: 2.02%
62 | CCc1ccccc1NC(=O)CN1C(=O)c2ccccc2Sc2ncccc21 | inactive: 17.6%
63 | CCCNC(=O)c1ccc2c(c1)sc1nc(-c3ccc(C)cc3)cn12 | inactive: 1.72%
64 | CCCn1cc(S(=O)(=O)c2ccc(CC)cc2)c(=O)c2cc(F)c(N(CC)CC)cc21 | inactive: -0.743%
65 | CCOc1cccc(NC(=O)CSc2ncc(-c3ccccc3)[nH]2)c1 | inactive: 0.0711%
66 | CCOc1ccc(CNC(=O)c2cc(=O)[nH]c3ccc(S(=O)(=O)N4CCCC4)cc23)cc1 | inactive: 8.57%
67 | COc1ccc(Cl)cc1CNCCSc1nnnn1C | inactive: -10.4%
68 | CCOc1cccc2sc(N3CCN(C(=O)C4CC4)CC3)nc12 | inactive: 18.6%
69 | Cc1cccc(N2CCN(C(=O)c3ccc4c(c3)N(Cc3cccc(Cl)c3)C(=O)c3ccccc3S4=O)CC2C)c1 (stereo unspecified) | inactive: -13%
70 | O=C(O)c1c(CNCc2cccc(F)c2)c2ccccc2n1Cc1ccccc1 | inactive: 2.74%
71 | O=C(NCC(c1ccc2c(c1)OCO2)N1CCOCC1)C(=O)Nc1cccc(Cl)c1 (stereo unspecified) | inactive: 0.842%
72 | COc1ccc(OC)c(CNC(=O)c2nn(C)c3c2CSc2ccccc2-3)c1 | inactive: -28.2%

Row | SMILES | activity change, negative = cytotoxicity
73 | Fc1cccc(Cl)c1Cn1c(-c2cccs2)nc2ccccc21 | inactive: 7.2%
74 | Cc1ccc(NC(=O)CCC(=O)N2Cc3ccccc3Oc3ncccc32)cc1F | inactive: -3.11%
75 | O=C(NCc1ccc(F)cc1)c1ccc2nc(N3CCCCC3)sc2c1 | inactive: -6.51%
76 | CCOc1ccc(NC(=O)c2ccc3c(c2)CCN3S(=O)(=O)c2ccc(Cl)cc2)cc1 | inactive: 6.62%
77 | CCCCN(C)C(=O)C1CCCN(c2ncnc3onc(C)c23)C1 (stereo unspecified) | inactive: -23.7%
78 | COc1ccccc1N1CCN(C(=O)Cn2cnc3onc(-c4ccc(F)cc4)c3c2=O)CC1 | inactive: -1.36%
79 | CCc1nn(CC(=O)NCCCN(CC(C)C)CC(C)C)c(=O)c2cc3sc(C)cc3n12 | inactive: -4.35%
80 | COc1cccc(N2CC(NC(=O)c3ccco3)CC2=O)c1 (stereo unspecified) | inactive: 0.817%
81 | O=C(c1ccc2c(=O)n(CCc3ccccc3)c(=O)[nH]c2c1)N1CCN(c2ccc(F)cc2)CC1 | inactive: 5.37%
82 | Cc1nn(-c2ccccc2)c2c1N(CC(=O)N1CCN(c3cccc(Cl)c3)CC1)C(=O)CS2 | inactive: 11.2%
83 | COc1ccc(Cn2c(=O)c3oc4ccccc4c3n(Cc3cccc(C(F)(F)F)c3)c2=O)cc1 | inactive: -3.13%
84 | Cc1ccccc1-c1nc2cc(NC(=O)Cc3ccc(Cl)cc3)ccc2o1 | inactive: 9.57%
85 | CCCCCCOc1ccc(C2C(=O)N(C3CCCCC3)CC(=O)N2CCC)cc1 (stereo unspecified) | inactive: -17.8%
86 | CCOc1ccccc1CNC(=O)C1CCN(c2nn3cc(-c4ccc(F)cc4)nc3s2)CC1 | inactive: -3%
87 | Cc1cccc(N2CCN(C(=O)c3cccc(-n4c(C)nc5cccnc54)c3)CC2)c1C | inactive: -0.0024%
88 | COc1ccccc1Cc1nc2ccccc2nc1SCC(=O)N(C)c1ccc(F)cc1 | inactive: -12.1%
89 | Cc1cccc(N2CCN(C(=O)Nc3cn(CC(C)C)c(=O)c4ccccc34)CC2)c1C | inactive: -3.99%
90 | CC(C)c1ccc(CN(Cc2ccco2)c2cnc(S(C)(=O)=O)nc2C(=O)Nc2ccc(F)cc2)cc1 | inactive: -0.572%
91 | Cc1ccc(C(=O)Nc2cc3nn(-c4ccccc4)nc3cc2Cl)c(C)c1 | inactive: 2.41%
92 | CCOc1ccccc1N(CC(=O)NCCSc1ccccc1)S(=O)(=O)c1ccccc1 | inactive: -21.3%
93 | N#C/C(=C\c1ccc(Cl)cc1Cl)c1nc(-c2cccc(Cl)c2)cs1 | inactive: 7.65%
94 | Cc1cccc(NC(=O)CCCCCn2c(=O)[nH]c3ccsc3c2=O)c1 | inactive: -1.04%
95 | CCOc1ccc(CCNC(=O)CCCn2nc(C)c3sc4ccccc4c3c2=O)cc1 | inactive: 16.5%
96 | CCOC(=O)C1CCCN(C(=O)c2cc3c(=O)[nH]c4ccc(C)cc4c3s2)C1 (stereo unspecified) | inactive: 16.8%
